Measured values taken from the supplement of paper PMC9588766.
Structures can show the parent of a compound that is named as a salt. In all, about 1,900 compounds were measured (“cell viability of compound + 1 nM pemigatinib relative to pemigatinib-only (DMSO) wells”: median about 0.95, lowest 2% from about 0.22 on). The list shows a part of the results.

tested on: PDC-DUC18828; experiment: cell viability of compound + 1 nM pemigatinib relative to pemigatinib-only (DMSO) wells (fraction); PDC-DUC18828 is a patient-derived cholangiocarcinoma cell line; higher = less growth inhibition; conditions: first compound 1 µM; pemigatinib concentration 1 nM; 72 h
Method: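 Selleck Bioactive library screen in the patient-derived FGFR2 fusion-positive ICC cell line PDC-DUC18828 (500 cells/well). Each compound was tested at 1 uM with 1 nM pemigatinib, in triplicate, for 72 h. Viability was read by CellTiter-Glo and normalised to plate DMSO controls. Value is the paper's averaged normalised viability.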

| Structure (SMILES) | cell viability |
| --- | --- |
| C[C@@H]1CC(=O)NN=C1c1ccc(NN=C(C#N)C#N)cc1 [Levosimendan] + CCN1C(=O)N(c2c(F)c(OC)cc(OC)c2F)Cc2cnc3[nH]c(CN4CCOCC4)cc3c21 [pemigatinib] | 0.928 |
| CN(C)CCCNC(=O)c1ccc(-c2cc(O)c3ncccc3c2)cc1 + CCN1C(=O)N(c2c(F)c(OC)cc(OC)c2F)Cc2cnc3[nH]c(CN4CCOCC4)cc3c21 [pemigatinib] | 1.04 |
| O=C(O)Cc1ccccc1Nc1c(Cl)cccc1Cl [Diclofenac Diethylamine] + CCN1C(=O)N(c2c(F)c(OC)cc(OC)c2F)Cc2cnc3[nH]c(CN4CCOCC4)cc3c21 [pemigatinib] | 0.926 |
| O=C(O)Cc1ccccc1Nc1c(Cl)cccc1Cl [Diclofenac Sodium] + CCN1C(=O)N(c2c(F)c(OC)cc(OC)c2F)Cc2cnc3[nH]c(CN4CCOCC4)cc3c21 [pemigatinib] | 0.981 |
| O=C(O)Cc1ccccc1Nc1c(Cl)cccc1Cl [Diclofenac Potassium] + CCN1C(=O)N(c2c(F)c(OC)cc(OC)c2F)Cc2cnc3[nH]c(CN4CCOCC4)cc3c21 [pemigatinib] | 0.921 |
| Cc1c(NC(=O)c2ccc(C(C)(C)C)cc2)cccc1-c1cn(C)c(=O)c(Nc2ccc(C(=O)N3CCOCC3)cc2)n1 + CCN1C(=O)N(c2c(F)c(OC)cc(OC)c2F)Cc2cnc3[nH]c(CN4CCOCC4)cc3c21 [pemigatinib] | 0.918 |
| C[C@@H](c1ncncc1F)[C@](O)(Cn1cncn1)c1ccc(F)cc1F [Voriconazole] + CCN1C(=O)N(c2c(F)c(OC)cc(OC)c2F)Cc2cnc3[nH]c(CN4CCOCC4)cc3c21 [pemigatinib] | 1.02 |
| Cc1cncc(CN2CCC(=C3c4ccc(Cl)cc4CCc4cccnc43)CC2)c1 [Rupatadine Fumarate] + CCN1C(=O)N(c2c(F)c(OC)cc(OC)c2F)Cc2cnc3[nH]c(CN4CCOCC4)cc3c21 [pemigatinib] | 0.953 |
| CS(=O)(=O)c1ccc([C@@H](O)[C@@H](CO)NC(=O)C(Cl)Cl)cc1 [Thiamphenicol] + CCN1C(=O)N(c2c(F)c(OC)cc(OC)c2F)Cc2cnc3[nH]c(CN4CCOCC4)cc3c21 [pemigatinib] | 0.98 |
| O=c1[nH]cc(F)c(=O)[nH]1 [Fluorouracil (5-Fluoracil, 5-FU)] + CCN1C(=O)N(c2c(F)c(OC)cc(OC)c2F)Cc2cnc3[nH]c(CN4CCOCC4)cc3c21 [pemigatinib] | 0.888 |
| CNC(=O)c1ccccc1Oc1nc(Nc2cc(OC)c(OC)c(OC)c2)ncc1Br + CCN1C(=O)N(c2c(F)c(OC)cc(OC)c2F)Cc2cnc3[nH]c(CN4CCOCC4)cc3c21 [pemigatinib] | 0.906 |
| O=c1ncn2nc(Sc3ccc(F)cc3F)ccc2c1-c1c(Cl)cccc1Cl + CCN1C(=O)N(c2c(F)c(OC)cc(OC)c2F)Cc2cnc3[nH]c(CN4CCOCC4)cc3c21 [pemigatinib] | 0.979 |
| C[C@]12C=CC(=O)C=C1CC[C@@H]1[C@@H]2[C@@H](O)C[C@@]2(C)[C@H]1CC[C@]2(O)C(=O)CO [Prednisolone] + CCN1C(=O)N(c2c(F)c(OC)cc(OC)c2F)Cc2cnc3[nH]c(CN4CCOCC4)cc3c21 [pemigatinib] | 0.931 |
| N=c1ccn2c(n1)O[C@H]1[C@H](O)[C@@H](CO)O[C@H]12 [Cyclocytidine HCl] + CCN1C(=O)N(c2c(F)c(OC)cc(OC)c2F)Cc2cnc3[nH]c(CN4CCOCC4)cc3c21 [pemigatinib] | 0.614 |
| CNC(=O)c1ccc2cc([C@@]3(O)CCn4cncc43)ccc2c1 [TAK-700 (Orteronel)] + CCN1C(=O)N(c2c(F)c(OC)cc(OC)c2F)Cc2cnc3[nH]c(CN4CCOCC4)cc3c21 [pemigatinib] | 1.07 |
| CC(=O)Oc1cc(C(F)(F)F)ccc1C(=O)O [Triflusal] + CCN1C(=O)N(c2c(F)c(OC)cc(OC)c2F)Cc2cnc3[nH]c(CN4CCOCC4)cc3c21 [pemigatinib] | 0.902 |
| CC(C)CCN1c2nc(Nc3cc(F)c(O)c(F)c3)ncc2N(C)C(=O)C1C (stereo not given) + CCN1C(=O)N(c2c(F)c(OC)cc(OC)c2F)Cc2cnc3[nH]c(CN4CCOCC4)cc3c21 [pemigatinib] | 0.714 |
| O=C1NC(=O)/C(=C/c2ccc(-c3ccc(F)cc3O)o2)S1 + CCN1C(=O)N(c2c(F)c(OC)cc(OC)c2F)Cc2cnc3[nH]c(CN4CCOCC4)cc3c21 [pemigatinib] | 0.979 |
| Cc1cnc(Nc2ccc(N3CCN(C)CC3)cc2)nc1Nc1cccc(S(=O)(=O)NC(C)(C)C)c1 + CCN1C(=O)N(c2c(F)c(OC)cc(OC)c2F)Cc2cnc3[nH]c(CN4CCOCC4)cc3c21 [pemigatinib] | 0.78 |
| OC[C@@H](O)[C@@H](O)CO [Erythritol] + CCN1C(=O)N(c2c(F)c(OC)cc(OC)c2F)Cc2cnc3[nH]c(CN4CCOCC4)cc3c21 [pemigatinib] | 0.953 |
| CCn1c(=O)c(-c2ccc(-c3cncs3)cc2Cl)cc2cnc(Nc3ccc(N4CCN(C)CC4)cc3)nc21 + CCN1C(=O)N(c2c(F)c(OC)cc(OC)c2F)Cc2cnc3[nH]c(CN4CCOCC4)cc3c21 [pemigatinib] | 1.01 |
| Nc1cccc(S(=O)(=O)N2CCCN(S(=O)(=O)c3ccc4c(c3)OCCO4)CC2)c1 + CCN1C(=O)N(c2c(F)c(OC)cc(OC)c2F)Cc2cnc3[nH]c(CN4CCOCC4)cc3c21 [pemigatinib] | 1.01 |
| CC[C@H](C)n1cc(C)c2c(C(=O)NCc3c(C)cc(C)[nH]c3=O)cc(-c3ccc(N4CCNCC4)nc3)cc21 + CCN1C(=O)N(c2c(F)c(OC)cc(OC)c2F)Cc2cnc3[nH]c(CN4CCOCC4)cc3c21 [pemigatinib] | 0.917 |
| Cc1cccc(-c2[nH]c(C(C)(C)C)nc2-c2ccc3nccnc3c2)n1 + CCN1C(=O)N(c2c(F)c(OC)cc(OC)c2F)Cc2cnc3[nH]c(CN4CCOCC4)cc3c21 [pemigatinib] | 1.02 |
| CC[C@@]1(O)C(=O)OCc2c1cc1n(c2=O)Cc2cc3cc(O)ccc3nc2-1 [(S)-10-Hydroxycamptothecin] + CCN1C(=O)N(c2c(F)c(OC)cc(OC)c2F)Cc2cnc3[nH]c(CN4CCOCC4)cc3c21 [pemigatinib] | 0.1 |
